# Molecular target: GST-fused human Keap1 (amino acid residues: 325-642) protein (Homo sapiens, UniProt Q14145)
# Assay: FP assay (in vitro): inhibition of binding between Nrf2 and Keap1 by fluorescence polarization
# Conditions: 20 nM GST-fused human Keap1, 10 nM FITC-labeled Nrf2 peptide, 2 hr at room temperature
row,Structure (SMILES),IC50 [nM]
1,"Cc1c([C@H](CC(=O)O)c2cc(CN3CC4(CC4)Oc4ccc(O)nc4C3C)c3sccc3c2)ccc2c1nnn2C (single isomer, unassigned) [Example 87, (3R)-3-(1,4-Dimethyl-1H-benzotriazol-5-yl)-3-(7-{[(5'S*)-7′-hydroxy-5′-methyl-3′H-spiro[cyclopropane-1,2′-pyrido[2,3-f][1,4]oxazepin]-4′ (5′ H)-yl]methyl}-1-benzothiophen-5-yl)propanoic acid]",≤ 10
2,"CC[C@@H]1CN(Cc2cc([C@@H](CC(=O)O)c3cnc4c(nnn4C)c3C)cc3ccsc23)C(C)c2nc(O)ccc2O1 (single isomer, unassigned) [Example 81, (3R)-3-(3,7-Dimethyl-3H-[1,2,3]triazolo[4,5-b]pyridin-6-yl)-3-(7-{[(2R,5S*)-2-ethyl-7-hydroxy-5-methyl-2,3-dihydropyrido[2,3-f][1,4]oxazepin-4(5H)-yl]methyl}-1-benzothiophen-5-yl)propanoic acid]",10 to 30
3,"CC[C@@H]1CN(Cc2cc([C@@H](CC(=O)O)c3ccc4c(nnn4C)c3C)cc3ccsc23)C(C)c2nc(O)ccc2O1 (relative stereo) [Example 79, (3R)-3-(1,4-Dimethyl-1H-benzotriazol-5-yl)-3-(7-{[(2R,5R*)-2-ethyl-7-hydroxy-5-methyl-2,3-dihydropyrido[2,3-f][1,4]oxazepin-4(5H)-yl]methyl}-1-benzothiophen-5-yl)propanoic acid]",30 to 100
4,"CC[C@@H]1CN(Cc2cc([C@H](CC(=O)O)c3ccc4c(nnn4C)c3C)cc3ccsc23)[C@@H](C)c2ncccc2O1 [Example 62, (3S)-3-(1,4-Dimethyl-1H-benzotriazol-5-yl)-3-(7-{[(2R,5S)-2-ethyl-5-methyl-2,3-dihydropyrido[2,3-f][1,4]oxazepin-4(5H)-yl]methyl}-1-benzothiophen-5-yl)propanoic acid]",10 to 30

# Reference: US20250282724A1, “BENZOTRIAZOLE COMPOUND” (DAIICHI SANKYO COMPANY, LIMITED, priority 2022, published 2025)
